Laboratory results: PubChem BioAssay AID463173 (ICCB-Longwood Screening Facility, Harvard Medical School, 2010)
The whole screen tested about 52,000 compounds, of which about 1,700 (3.3%) were called active. Rule as the data show it: active = survival mostly below about 52% (no sharp cut-off); inactive = mostly above about 56%. This is one part of the list.

Test system: Wild type
Experiment: S. aureus survival, RN4220 and DeltatarO strains – OD600, teichoic acid synthesis inhibitors, primary screen (AID 463173)
Conditions: S. aureus RN4220 wild type/DeltatarO growth, OD600, 18 h, active compounds read low, screened at 18.75 µg/mL (by protocol)

SMILES | survival
CCc1ccc(NC(=O)CSc2nnc(CC)c(CC)n2)cc1 | inactive: 71%
Cc1ccc(Cn2c(CN3CCC(C(=O)O)CC3)cc3ccccc32)cc1 | inactive: 82%
COc1ccc(C(=O)Nc2nc3c(s2)Cc2c(Br)ccc(OC)c2-3)cc1OC | inactive: 86%
Cc1cc(C)cc(N(CC(=O)Nc2c(C)cc(C)cc2C)S(=O)(=O)c2c(C)nn(C)c2C)c1 | active: -6%
Cc1ccc(Nc2nc(Cl)nc(N(C)C#N)n2)cc1 | inactive: 112%
CCOc1cc(-c2nnc(SCC(=O)NC3CCCCC3)nc2-c2ccc(OC)c(OCC)c2)ccc1OC | inactive: 72%
COc1ccc(CNC(=O)CCCn2ccc3cc(S(=O)(=O)N4CCCC4)ccc32)cc1 | inactive: 75%
CC1(C)Cc2ccccc2C2=NNC(=O)C2=N1 | inactive: 114%
CC(C)NC(=O)C1CCCN(c2ncnc3onc(-c4ccc(F)cc4)c23)C1 (stereo not drawn) | inactive: 94%
CCOc1ccccc1NC(=O)CCS(=O)(=O)c1ccc2c(c1)oc(=O)n2C | inactive: 73%
COc1ccc2oc(-c3cccc(NC(=O)c4cc([N+](=O)[O-])ccc4N4CCOCC4)c3)nc2c1 | inactive: 66%
CCOC(=O)C(C)Sc1nnc2cc(C)c3ccccc3n12 (stereo not drawn) | inactive: 78%
COc1cc(C2c3c(-c4c(C)cc(C)cc4O)n[nH]c3C(=O)N2Cc2ccco2)cc(OC)c1OC (stereo not drawn) | inactive: 98%
COc1ccc(OC)c(-c2cc(C(=O)Nc3c(C)nn(Cc4ccc(C)cc4)c3C)no2)c1 | inactive: 71%
Cc1ccccc1CNC(=O)C1CCCCN1S(=O)(=O)c1ccc(F)cc1 (stereo not drawn) | inactive: 74%
COc1ccc(C(CNC(=O)c2oc3cc(Br)ccc3c2C)N2CCCCC2)cc1 (stereo not drawn) | inactive: 84%
O=[N+]([O-])c1ccc(S(=O)(=O)N2CCn3cccc3C2c2ccc(Br)cc2)cc1 (stereo not drawn) | inactive: 71%
O=C(Cn1ncc2c3ccccc3n(Cc3ccccc3)c2c1=O)NCc1ccccn1 | inactive: 86%
Cc1ccc(-n2ncc3c(NCCCN(C)C)ncnc32)cc1Cl | inactive: 78%
COc1ccc(Nc2ncc3c(n2)CCN(Cc2sccc2C)C3)c(OC)c1 | inactive: 73%
COc1ccc2c(CNCCc3ccco3)c(C(=O)O)n(Cc3ccc(C)cc3)c2c1 | inactive: 86%
Cc1ccc(-n2nc(C(=O)N(C)c3ccc(C)c(C)c3)c3c4ccccc4n(C)c3c2=O)cc1 | inactive: 101%

SMILES | survival
Cc1ccc(NC(=O)c2c(C)oc3ccc(O)c(CN4CCN(Cc5ccccc5)CC4)c23)cc1 | inactive: 68%
O=C(CSc1ccccc1)NN1C(=O)c2ccccc2C1=O | inactive: 112%
CCOC(=O)CN1C(=O)N(c2ccc(C)c(C)c2)S(=O)(=O)c2ccccc21 | inactive: 87%
Cc1ccc(CN2CCC(CNC(=O)c3cnn(-c4ccc(C)cc4)c3C3CCN(C(=O)OC(C)(C)C)CC3)CC2)cc1 | inactive: 113%
Cc1ccc(S(=O)(=O)N(CC(=O)Nc2cccnc2)c2cc(Cl)ccc2C)cc1 | inactive: 72%
COc1ccc(NC(=O)CC2C(=O)N(c3ccccc3)C(=O)N2CCc2sccc2C)cc1 (stereo not drawn) | inactive: 78%
Cc1cccc(NC(=O)CCCn2nc(C)c3c(C)n(-c4ccccc4)nc3c2=O)c1C | inactive: 82%
CCOc1ccc(CNC(=O)C2CCCN(c3nn4cc(-c5ccc(OC)cc5)nc4s3)C2)cc1 (stereo not drawn) | inactive: 95%
Cc1cc(=O)n(CC(=O)Nc2ccc(Cl)c(Cl)c2)c(-n2nc(C)cc2C)n1 | inactive: 128%
CC(C)CCNc1nc2c(-c3ccccc3)nnn2c2ccccc12 | inactive: 88%
Cc1ccc(C(=O)CSc2nc3cc(C(=O)NC4CCCC4)ccc3c(=O)n2CC2CCCO2)c(C)c1 (stereo not drawn) | inactive: 63%
COc1cccc(-c2cc(C(=O)Nc3cnn(Cc4ccc(Cl)cc4Cl)c3)no2)c1 | inactive: 112%
COc1cccc(NC(=O)c2oc3ccccc3c2NC(=O)c2ccccc2C)c1 | inactive: 63%
O=C(CC1N=C2c3ccccc3N=C(SCc3cccc(F)c3)N2C1=O)NCc1cccs1 (stereo not drawn) | inactive: 77%
CCOc1ccc(CNC(=O)c2ccc(CSc3nc4ccncc4n3Cc3ccc(F)cc3)cc2)cc1 | inactive: 75%
Cc1nn(-c2ccccc2)c2nc(C3CC3)cc(C(=O)Nc3cccc(F)c3)c12 | inactive: 74%
COC(=O)c1ccccc1NC(=O)CSc1n[nH]c(CC(C)C)n1 | inactive: 74%
CCCCN(CCCC)CCCNC(=O)c1ccc2nc(N3CCCCC3)sc2c1 | inactive: 81%
Cc1ccc(CNC(=O)CCNS(=O)(=O)c2ccc3c(c2)CCCC(=O)N3)cc1 | inactive: 64%
COc1ccc(OC)c(Nc2nc3ccccc3nc2-n2nc(C)cc2C)c1 | active: 10%
CCN(CC)S(=O)(=O)c1ccc(Cl)c(OC)c1 | inactive: 114%
COc1ccc(-c2nnn3c2nc(NCCc2ccc(OC)c(OC)c2)c2ccccc23)cc1 | inactive: 97%

SMILES | survival
Cc1nn2c(=O)cc(COc3ccc(/C=C(\C#N)C(=O)Nc4ccccc4C)cc3)nc2s1 | inactive: 80%
COc1ccc2c(c1)c1c(c(=O)n(-c3cc(Cl)ccc3C)c(=O)n1CC(=O)N1CCCC1)n2C | inactive: 89%
Cc1ccc(Sc2c(C)nn(C(C)(C)C)c2OC(=O)CC(C)C)cc1 | active: -8%
Cc1c(C(=O)OC2CCC(C)CC2)[nH]c2c1C(=O)CC(c1ccc(F)cc1)C2 (stereo not drawn) | inactive: 96%
CCOC(=O)c1cccc(NC(=O)CCc2c(C)nn(-c3ccc(N4CCCCC4)nn3)c2C)c1 | inactive: 95%
Cc1ccccc1NC(=O)c1c(NC(=O)c2ccccc2F)sc2c1CCC(C)C2 (stereo not drawn) | inactive: 82%
COc1ccccc1NC(=O)c1ncn(-c2ccccc2)n1 | inactive: 112%
CCCCN1C(=O)c2[nH]nc(-c3ccccc3O)c2C1c1ccc(OCc2ccccc2)c(OC)c1 (stereo not drawn) | inactive: 64%
COc1ccc(Cn2ccc3nc(C)c(C(=O)N4CCN(c5ccc(F)cc5)CC4)cc3c2=O)cc1 | inactive: 78%
C(=N\c1nc2ccccc2n1Cc1ccccc1)/c1ccc2c(c1)OCO2 | inactive: 105%
Cc1ccc2nc(CSc3nnc(NC(=O)C(C)C)s3)cc(=O)n2c1 | active: -3%
CCOc1ccc(-c2cc3c(=O)n(Cc4nc(-c5ccc(OCC)c(OC)c5)oc4C)ccn3n2)cc1Cl | inactive: 146%
CCCCn1cc2c(c1-c1ccc(Br)cc1)c(=O)n(C)c(=O)n2C | inactive: 71%
Cc1cccc2c(=O)cc(CSc3ccccc3NC(=O)c3cccc(Cl)c3)[nH]c12 | inactive: 82%
CSc1ccc(C2c3c(-c4ccccc4O)n[nH]c3C(=O)N2Cc2ccncc2)cc1 (stereo not drawn) | inactive: 92%
Cc1cccc(C(=O)NCCc2nc3ccccc3n2CCC(C)C)c1 | inactive: 116%
COc1ccc(NCc2cc3ccc(OC)cc3n(CC(=O)Nc3ccc(C)c(C)c3)c2=O)cc1 | inactive: 66%
O=C(CN1C(=O)c2ccccc2S1(=O)=O)NC1CCCC1 | inactive: 108%
Cc1cccc(OCC(=O)Nc2c(C(=O)Nc3ccc(F)cc3)oc3ccccc23)c1 | inactive: 84%
Cc1cccc(N2C(=O)CSC23C(=O)N(C)c2ccccc23)c1 (stereo not drawn) | inactive: 71%
CCOc1ccc(OCC)c(NC(=O)c2cnn(-c3ccc(F)cc3)c2-n2cccc2)c1 | inactive: 66%
CCc1ccc(-n2nc(C)c3c(C)cc(=O)n(CC(=O)Nc4cc(Cl)ccc4OC)c32)cc1 | inactive: 64%

SMILES | survival
COc1cc(NC(=O)NCCc2c(C)nn(C)c2C)cc(OC)c1OC | inactive: 81%
CCCN1CCN(c2nnc(-n3cccc3C(=O)Nc3ccccc3C(F)(F)F)s2)CC1 | inactive: 148%
C/C(=N\NC(=O)C1CC1(C)c1ccccc1)c1ccco1 (stereo not drawn) | inactive: 108%
O=c1c2sc3ccccc3c2n(Cc2cccc(Cl)c2)c(=O)n1Cc1ccccc1 | inactive: 82%
COc1ccc(S(=O)(=O)Nc2cccc(-c3ccc(N4CCCCCC4)nn3)c2)cc1OC | inactive: 55%
CC(C)(C)OC(=O)N1CCC(c2c(C(=O)N3CCN(c4cccc(Cl)c4)CC3)cnn2-c2cccc(Cl)c2)CC1 | inactive: 146%
CC(=O)Nc1ccc(S(=O)(=O)NCCc2csc3nc(-c4ccc(Cl)cc4)nn23)cc1 | inactive: 67%
COc1ccc(C2NCCS2)cc1 (stereo not drawn) | inactive: 108%
CC(=O)Nc1cc2c(cc1C(=O)c1ccccc1)OCCO2 | inactive: 117%
Cc1ccc(C)n1NC(=O)c1ccc(O)cc1 | inactive: 99%
CCc1ccc(NC(=O)C2CCCN(S(=O)(=O)c3ccc4[nH]c(=O)ccc4c3)C2)cc1 (stereo not drawn) | inactive: 101%
COc1cccc(C(c2sc3nc(-c4ccco4)nn3c2O)N2CCC(C)CC2)c1 (stereo not drawn) | inactive: 77%
O=C(CSc1ccnc(=O)[nH]1)NCc1ccc(F)cc1 | inactive: 125%
CCOC(=O)C1CCN(C(=O)Cn2nc(C)n3c(cc4c(OC)cccc43)c2=O)CC1 | inactive: 86%
CCC1CN(C(=O)NCc2ccc(F)cc2)c2cc(C)ccc2O1 (stereo not drawn) | inactive: 95%
Cc1ccc(/C=C/C(=O)NCCCn2ccnc2)cc1 | inactive: 102%
CN1C(=O)c2ccccc2Sc2ccc(NC(=O)Cc3ccc(Cl)cc3)cc21 | inactive: 131%
CCOC(=O)C1CCCN(c2c3c(nc4cc(-c5ccc(C)cc5)nn24)CCC3)C1 (stereo not drawn) | inactive: 105%
Cc1cccc(N(C)S(=O)(=O)c2nnc(NC(=O)C(C)Oc3ccccc3)s2)c1 (stereo not drawn) | inactive: 57%
COC(=O)c1sccc1S(=O)(=O)N1CCN(c2cccc(C)c2)C(C)C1 (stereo not drawn) | inactive: 63%
COc1ccc(OC)c(CCNC(=O)c2ccc3c(c2)N(Cc2ccccc2)CCS3)c1 | inactive: 85%
CCOC(=O)c1cccc(NC(=O)C2COc3ccc(OC)cc3C2)c1 (stereo not drawn) | inactive: 66%
